Data: publication PMC4336329 (PLoS ONE, 2015)
Among all 310,000 compounds or so, about 14,000 (4.5%) showed an effect of 50% or more. Effects have a minus sign here. The list shows a part of the results.

molecular target: human ether-à-go-go-related gene (hERG) potassium channel (human, UniProt Q12809); assay: primary screen, population patch clamp on CHO cells stably expressing hERG
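Also: peak tail current of the secondary pulse compared with the same well before compound.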

human ether-à-go-go-related gene (hERG) potassium channel, sequence (Q12809 whole entry, looked up): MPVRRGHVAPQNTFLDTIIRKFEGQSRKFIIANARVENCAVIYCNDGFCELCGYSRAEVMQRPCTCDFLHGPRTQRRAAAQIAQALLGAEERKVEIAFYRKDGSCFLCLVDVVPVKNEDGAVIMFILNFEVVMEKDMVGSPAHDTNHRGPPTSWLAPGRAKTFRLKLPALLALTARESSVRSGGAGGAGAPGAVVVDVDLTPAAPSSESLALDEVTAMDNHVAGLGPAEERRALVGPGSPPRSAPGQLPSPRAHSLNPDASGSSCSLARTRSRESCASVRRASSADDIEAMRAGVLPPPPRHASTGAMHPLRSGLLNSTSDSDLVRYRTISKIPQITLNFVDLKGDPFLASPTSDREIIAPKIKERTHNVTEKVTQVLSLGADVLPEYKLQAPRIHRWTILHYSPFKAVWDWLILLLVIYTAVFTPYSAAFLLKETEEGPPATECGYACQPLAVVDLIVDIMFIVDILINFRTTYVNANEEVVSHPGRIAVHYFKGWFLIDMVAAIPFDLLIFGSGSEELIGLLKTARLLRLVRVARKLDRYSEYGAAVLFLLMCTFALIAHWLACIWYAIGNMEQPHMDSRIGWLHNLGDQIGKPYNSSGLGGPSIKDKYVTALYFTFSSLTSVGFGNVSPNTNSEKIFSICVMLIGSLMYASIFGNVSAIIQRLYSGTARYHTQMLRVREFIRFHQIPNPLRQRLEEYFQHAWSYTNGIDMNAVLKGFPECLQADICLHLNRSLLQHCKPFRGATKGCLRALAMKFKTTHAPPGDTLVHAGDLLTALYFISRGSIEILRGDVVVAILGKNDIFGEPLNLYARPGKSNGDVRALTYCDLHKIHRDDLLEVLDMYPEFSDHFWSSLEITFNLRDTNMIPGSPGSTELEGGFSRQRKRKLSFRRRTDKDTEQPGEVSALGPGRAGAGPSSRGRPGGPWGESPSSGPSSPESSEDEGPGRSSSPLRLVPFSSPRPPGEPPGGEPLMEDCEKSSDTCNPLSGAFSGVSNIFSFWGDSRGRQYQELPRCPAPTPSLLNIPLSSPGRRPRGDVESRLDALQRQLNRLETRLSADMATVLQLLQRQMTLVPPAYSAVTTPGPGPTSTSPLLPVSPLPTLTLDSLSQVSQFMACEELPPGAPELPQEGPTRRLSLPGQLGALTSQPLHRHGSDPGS

SMILES	hERG current change (%, negative = inhibition) at 10uM [%]
CCCC(=O)Nc1c(C(=O)OCC)oc2ccccc12	1.98
COc1ccc(S(=O)(=O)N2CCOC2CNC(=O)C(=O)NCCc2ccccc2OC)cc1 (stereo not shown)	-9.14
CCCCn1c(SCC(=O)N(CC)C2CCS(=O)(=O)C2)nnc1C(CC)N(C)C (stereo not shown)	8.8
CC(=O)c1ccc(S(=O)(=O)NCc2ccc(C(=O)N(C)CC(=O)Nc3cccc(F)c3)cc2)cc1	10.8
Clc1ccc(OCCOCCNCc2ccccc2)cc1Cl.O=C(O)C(=O)O	-44.1
COC(=O)c1ccc(S(=O)(=O)N2CCCCCC2)n1C	13.3
Cc1ccc2c(CC(=O)NNC(=O)c3ccncc3)coc2c1	14.6
Cc1csc(NC(=O)c2c(-c3c(Cl)cccc3Cl)noc2C)n1	6.22
CC1CCC2(CC1)NC(=O)N(CC(=O)Nc1nc(-c3ccc(F)cc3)cs1)C2=O (stereo not shown)	15.2
CN1CCc2c(sc3nc(SCC(=O)NCc4ccco4)n(-c4ccccc4)c(=O)c23)C1	-10.6
CCOc1ccc(-c2nc(C)c(C(C)=O)n2O)cc1	-0.685
O=C(NCCC1=CCCCC1)C(=O)NCC(c1ccco1)N1CCN(c2ccccc2F)CC1 (stereo not shown)	2.07
Cc1ccc(S(=O)(=O)NC(=O)CSc2nc3ccccc3s2)cc1	-6.94
O=C(NCCc1cnn(-c2ccccc2)c1)c1cc(COc2c(F)cccc2F)on1	-3.63
O=C(CSc1nnc2c(n1)[nH]c1ccc(S(=O)(=O)N3CCOCC3)cc12)Nc1ccccc1Cl	12.8
Cc1cccc(OC(=O)Cn2c(C(F)(F)F)nc3ccccc32)c1	17.6
C=CCn1c(CCC(=O)O)ccc1-c1ccc(OC)cc1	12.3
Cc1cc(C)nc(NC(=S)Nc2ccc(F)cc2F)c1	3.45
COc1ccccc1CNC(=O)c1cc(S(=O)(=O)N2CCCC2)cn1C	-4.26
Cc1cc2cc(CCNC(=O)C(C)C)c(=O)[nH]c2cc1C	2.03
Cc1ccc(C(=O)COC(=O)c2n[nH]c(=O)c3ccccc23)cc1	6.94
CC(NC(=O)C(=O)NCCc1c[nH]c2ccccc12)c1ccccc1 (stereo not shown)	14

SMILES	hERG current change (%, negative = inhibition) at 10uM [%]
Cc1ccc(S(=O)(=O)N2[C@@H](c3ccccc3F)C(C(=O)O)=CC[C@H]2c2cccc(C)c2)cc1	3.74
Cc1c(C(=O)N/N=C/C(C)C)[nH]c2ccc([N+](=O)[O-])cc12	-9.03
CCN(Cc1ccccc1)C(=O)c1cc2cc(OC)c(OC)cc2[nH]1	14
O=C(O)CSc1c2c(nc3cc(C(=O)N4CCCC4)ccc13)CCCC2	16.8
CC/C(=N\NC(=O)Nc1nonc1N)c1ccc(OC)c(OC)c1	4.9
CC12CC3CC(C)(C1)CC(C(O)CN1CCOCC1)(C3)C2.Cl (stereo not shown)	1.62
CN(C)CCn1c(C(=O)O)cc2ccccc21.Cl	14.6
COC(=O)c1ccccc1NC(=O)Cn1c(=O)n(Cc2ccccc2)c(=O)c2c(C)c(C)sc21	5.13
Cc1ccc(C(=O)CN(CCCC(N)=O)S(=O)(=O)c2ccc([N+](=O)[O-])cc2)cc1	-66.7
CCN(CC)S(=O)(=O)c1cc(NC(=O)COC(=O)c2sc3ccccc3c2Cl)ccc1C	17.8
CC(NC(=O)/C=C/c1ccc(Br)cc1)c1ccc(Cl)cc1 (stereo not shown)	8.23
Cc1ccc(S(=O)(=O)CC(O)COc2ccc(F)cc2Cl)c(C)c1 (stereo not shown)	6.28
CCCCn1nnnc1SCC(=O)c1cc(Cl)ccc1OC	-28.7
O=C(NC1CCCc2c1cnn2-c1ccc(F)cc1F)c1csnn1 (stereo not shown)	16.9
CN1/C(=C/C(=S)NC(=O)C2CCC2)C(C)(C)c2ccccc21	21.2
Cc1ccc(Nc2nc(C(=O)NCCCN3CCOCC3)cs2)cc1	-45.9
CCCN1C(=O)c2cc(C(=O)Nc3cccc(C(C)=O)c3)ccc2C1Nc1cccc(C(C)=O)c1 (stereo not shown)	-5.36
COc1ccc(-c2nc(-c3ccc4c(c3)OCO4)[nH]c2-c2ccc(OC)cc2)cc1	24.8
Cn1cc(C(=O)c2ccc(Cl)cc2Cl)cc1C(=O)N/N=C(\N)COc1ccc(F)cc1	-30.3
CCCCNc1ccc(S(N)(=O)=O)cc1[N+](=O)[O-]	-0.608
CCCCSc1nc2sc3c(c2c(=O)[nH]1)CC(C)(CC)OC3 (stereo not shown)	28.8
Cc1cccc(OCC(=O)O/N=C(\N)c2ccccn2)c1C	-5.6

SMILES	hERG current change (%, negative = inhibition) at 10uM [%]
Cc1ccc(SCC(=O)Nc2ccc3c(c2)C(=O)NC3=O)cc1	5.88
CC/C(=N\Nc1ccc([N+](=O)[O-])cc1[N+](=O)[O-])c1ccc(O)cc1	21.7
Cc1cccnc1NC(=O)c1ccc(C(=O)c2ccccc2)cc1	-5.53
Cc1ccccc1-c1cc(C(=O)NCC2CC2)nn1CC1CC(c2cccc([N+](=O)[O-])c2)=NO1 (stereo not shown)	-26.6
Nn1cnnc1N/N=C/c1cc([N+](=O)[O-])c(Cl)cc1Cl	16.8
COc1ccc(NC(=S)NC(NC(=O)c2ccccc2Cl)C(Cl)(Cl)Cl)c([N+](=O)[O-])c1 (stereo not shown)	14.3
CC(=O)c1c(C)[nH]c(C(=O)Nc2nc(-c3ccc(Cl)cc3)cs2)c1C	13.9
c1ccc(CCNc2ncnc3sccc23)nc1	26.8
O=C(O)c1ccc(/C=C/c2nc3ccccc3c(=O)[nH]2)cc1	17.5
C=C(C)c1nc(N)nc(N)n1	8.71
CCC(CC)C(=O)Nc1cccc(C(=O)Nc2ccc3c(c2)OCO3)c1	3.33
COc1ccc(CCNC(=O)COC(=O)C2CC2C)cc1 (stereo not shown)	1.67
COc1ccc(NC(=O)c2ccc(C)cc2)cc1	12.6
Cc1noc(C)c1CSCC(=O)Oc1ccc(N(C)S(=O)(=O)c2ccc(Cl)cc2)cc1	4.5
CCN(CC(=O)Nc1cc(Cl)ccc1C)C(=O)C1COc2ccccc2O1 (stereo not shown)	2.66
CCN1CCCC1CNC(=O)C1c2ccccc2C(=O)N(CCOC)C1c1ccc(F)cc1 (stereo not shown)	20.2
CCN(CC(=O)Nc1ccc2c(c1)OCCO2)Cc1cc(=O)n2ccsc2n1	3.88
O=C(Cn1nnc(-c2ccccc2Cl)n1)N1CCN(S(=O)(=O)c2ccc(Cl)cc2)CC1	-18
COc1ccc(CNS(=O)(=O)c2ccc(-c3ccc(=O)[nH]n3)s2)cc1OC	-29.5
CCOC(=O)N1CCN(S(=O)(=O)c2ccc(C(=O)Nc3ccc4c(c3)C(=O)NC4=O)cc2)CC1	-7.82
CC1CCN(CCNC(=O)C2CCCN(S(=O)(=O)c3cccc4nsnc34)C2)CC1 (stereo not shown)	-19.3
CC(C)N(CCCNC(=O)c1ccc(CS(=O)(=O)c2c(Cl)cccc2Cl)o1)Cc1ccccc1	-67.7

SMILES	hERG current change (%, negative = inhibition) at 10uM [%]
COc1cccc(CNC(=O)N[C@@H](C)C(=O)O)c1	5.75
C=CCC1(Nc2ccccc2)CC(C)N(C)CC1C.O=C(O)C(=O)O (stereo not shown)	-21.1
O=C(N/N=C/c1ccc(O)cc1)c1ccc(COc2cc(Cl)ccc2Cl)o1	7.07
CCn1cc(C(=O)NCCCOC)c(=O)c2cc(S(=O)(=O)N3CCC(C)CC3)ccc21	-10.3
CCOc1ccc(N(CC(=O)N/N=C(\C)c2cccc(NC(C)=O)c2)S(=O)(=O)c2ccccc2)cc1	19.5
CCC(C)(CC(=O)O)CC(=O)Nc1cc(C(F)(F)F)cc(C(F)(F)F)c1 (stereo not shown)	9.28
COc1ccc(CCNC(=O)CC(C)(C)CC2=NS(=O)(=O)c3ccccc3N2)cc1OC	8.15
COC(=O)C[C@H]1c2cc(C(F)(F)F)ccc2S(=O)(=O)N1Cc1ccccc1OC	-12.9
CC(C)C(OC(=O)CCCC(=O)Nc1nccs1)C(=O)NC1CCCCC1 (stereo not shown)	4.8
COc1ccccc1NC(=O)CCC(=O)Nc1ccccc1OC	-5.93
COC(=O)c1cccn(CC(=O)c2ccc(Cl)cc2Cl)c1=O	-2.24
O=C(O)CN1C(=O)/C(=C\c2ccccc2OCc2ccc(F)cc2)SC1=S	-13.3
NC(=O)COC(=O)[C@H](Cc1c[nH]c2ccccc12)NC(=O)c1ccc(F)cc1	7.06
COc1ccccc1NC(=O)Nc1nc(CC(=O)NCc2ccccn2)cs1	-11
COc1ccc(NC(=O)CN(C)C(=O)c2oc3c(ccc4ccccc43)c2C)cc1	-10.8
CC1(C)CC(NC(=S)Nc2ccc([N+](=O)[O-])cc2)CC(C)(C)N1	0.0506
COc1ccc(CN2CCN(C3CCC3)CC2CCO)c(C)c1C (stereo not shown)	0.432
COc1cccc(/C(C)=N/N=C(\C)c2cccc(OC)c2)c1	16.7
COc1cccc(CC(=O)OCC(=O)N2CCN(c3ccc(F)cc3)CC2)c1	-60.6
